According to PubChem BioAssay AID485294 (National Center for Advancing Translational Sciences (NCATS), 2010):
Out of some 370,000 compounds screened, about 150 (0.041%) were called active. The inconclusive results got no clear call from the source; some entries with a clear call stand among them for comparison. The call rests on the fitted dose curve; in most records, active means well fitted inhibition curve with a large enough effect; inconclusive means small, poorly fitted or top-dose-only effect; inactive means flat fitted curve, though single readings scatter. Potencies of inconclusive entries are left out as doubtful fits.

Target: Beta-lactamase (Escherichia coli (strain K12)) (UniProt P00811)
Assay: qHTS Inhibitors of AmpC Beta-Lactamase (assay with detergent); further: nearly all actives have a fitted effect of over 25% in size
Settings: AmpC hydrolysis of nitrocefin, absorbance 480 nm, 0.01% Triton; series mostly up to 114 µM
Summary of the method: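 20 mM phosphate pH 7.0 + 0.01% (detergent screen) or 0.0001% Triton X-100; 5.3 nM AmpC reagent; cpd preinc 15 min RT; nitrocefin (800 uM stock) to start; A480 q20 s × 4 min; Activity was normalised to no-enzyme and no-compound control wells.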
Potency means the concentration at half of the fitted maximal effect; tags describe the fitted curve by direction and shape.

Chain of UniProt P00811 (P00811 whole entry, looked up): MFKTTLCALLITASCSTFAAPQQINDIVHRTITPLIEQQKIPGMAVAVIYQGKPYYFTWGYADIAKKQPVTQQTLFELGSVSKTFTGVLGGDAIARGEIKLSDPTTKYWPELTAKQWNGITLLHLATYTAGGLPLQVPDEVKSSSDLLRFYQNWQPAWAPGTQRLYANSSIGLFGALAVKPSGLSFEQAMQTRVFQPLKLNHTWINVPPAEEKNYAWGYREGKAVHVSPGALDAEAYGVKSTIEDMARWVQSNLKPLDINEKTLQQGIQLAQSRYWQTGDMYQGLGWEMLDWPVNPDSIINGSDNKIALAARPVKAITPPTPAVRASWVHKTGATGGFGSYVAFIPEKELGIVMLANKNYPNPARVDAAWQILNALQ

| SMILES | Potency |
| --- | --- |
| CN(C)S(=O)(=O)N1CCC(Oc2cccc(C(=O)NC3CCCCCC3)c2)CC1 | inactive |
| COc1ccc(C(=O)CC2(O)C(=O)Nc3c(C)cccc32)c(OC)c1OC (centres undefined) | inactive |
| CC(Sc1nc(N2CCCCC2)c2c(c1C#N)CCCC2)C(=O)O (centres undefined) | inconclusive [inhibitor, full curve, poor fit] |
| CCOc1ccc(-n2c(SCC(=O)Nc3cccc(Cl)c3)nc3c(oc4ccccc43)c2=O)cc1 | inconclusive [inhibitor, single point] |
| CCCCc1nc(C(N)=O)c2[nH]c(=O)n(-c3ccc(OCC)cc3)c2n1 | inactive |
| CCOC(=O)N1CCN(C(=O)c2ccc(CN(c3ccc(C)c(C)c3)S(C)(=O)=O)cc2)CC1 | inconclusive [inhibitor, full curve, poor fit] |
| CC(C)NC(=O)C1(S(=O)(=O)c2ccccc2)CC=CC1 | inconclusive [inhibitor, full curve] |
| Nc1ncnc2c1C1(CCCCC1)Cc1ccccc1-2 | inconclusive [inhibitor, full curve, poor fit] |
| COCCN(C(=O)CN1CCN(S(=O)(=O)c2ccc(F)cc2)CC1)c1c(N)n(Cc2ccccc2)c(=O)[nH]c1=O | inconclusive [inhibitor, full curve, poor fit] |
| O=C(COc1ccc(Cl)cc1)NC1CCSC1=O (centres undefined) | inconclusive [inhibitor, single point] |
| CC(Sc1nnc2c(n1)C1CCC2(C)C1(C)C)C(=O)Nc1ccccc1 (centres undefined) | inconclusive [inhibitor, full curve] |
| N#CCCn1cc(C(=O)Nc2ccc(F)cc2)c(-c2ccccc2)n1 | inconclusive [inhibitor, partial curve, poor fit] |
| O=S(=O)(c1ccc(Br)s1)N1CCC(Cc2ccccc2)CC1 | inconclusive [inhibitor, full curve, poor fit] |
| CCCCOc1ccc(NC(=O)Nc2nnc(C)s2)cc1 | inconclusive [inhibitor, single point] |
| Cc1ccc2[nH]c(C(=O)Nc3ccc(F)cc3)cc2c1 | inconclusive [inhibitor, full curve] |
| CSc1cccc(NC(=O)C2CCCN(c3ncnc4c3nc3n4CCCCC3)C2)c1 (centres undefined) | inconclusive [inhibitor, full curve, poor fit] |
| O=C(CCCc1ccccc1)NCc1ccccc1Cl | inconclusive [inhibitor, full curve, poor fit] |
| COc1ccc(/C=N/NC(=O)c2ccc(C)cc2)cc1CN1CCN(c2ccc(F)cc2)CC1 | inconclusive [inhibitor, single point] |
| CCOC(=O)c1c(C)[nH]c(C(=O)C(C)OC(=O)c2cccc(OCc3c(C)noc3C)c2)c1C (centres undefined) | inactive |
| COc1ccc(S(=O)(=O)NCCc2sc(C)nc2C)cc1F | inactive |
| COc1ccc(CCNC(=O)Cc2nn(C)c(=O)c3ccccc23)cc1OC | inconclusive [inhibitor, full curve] |
| Cc1nc(-c2ccc(F)cc2)c(CC(=O)N(C)CC(=O)Nc2ccccc2C(F)(F)F)s1 | inconclusive [inhibitor, full curve, poor fit] |

| SMILES | Potency |
| --- | --- |
| O=C(NCc1nc2ccccc2[nH]1)c1ccc(S(=O)(=O)N2CCOCC2)cc1 | inconclusive [inhibitor, full curve, poor fit] |
| COc1cccc(C(=O)NCCSc2c(C)[nH]c3ccccc23)c1OC | inactive |
| CS(=O)(=O)Nc1ccccc1C(=O)Nc1cc(Cl)cc(Cl)c1 | inactive |
| CCN(CC)S(=O)(=O)c1ccc(OC)c(NC(=O)c2ccc(-n3cncn3)c([N+](=O)[O-])c2)c1 | inconclusive [inhibitor, full curve, poor fit] |
| COc1cccc(CNCCc2ccc3c(c2)OCO3)c1OC | inconclusive [inhibitor, full curve] |
| COc1ccc(-n2cc(-c3ccccc3)c3c(NC4CCCCC4)ncnc32)cc1 | inactive |
| Cc1cccc(NC(=O)c2cc([N+](=O)[O-])ccc2NCC2CCCO2)n1 (centres undefined) | inconclusive [inhibitor, partial curve] |
| O=C(O)c1ccccc1S(=O)CCO (centres undefined) | inactive |
| CCOc1cccc(C(=O)NC2CCCCC2)c1 | inconclusive [inhibitor, full curve, poor fit] |
| O=C(Nc1cc(F)ccc1F)N1CCC(CN2CCOCC2)CC1 | inactive |
| O=C(Nc1cc(Br)ccc1O)c1cc(-c2ccccc2)on1 | inconclusive [inhibitor, full curve, poor fit] |
| COC(CNC(=O)c1cn(C)c2ccc(S(=O)(=O)N(C)C3CCCCC3)cc2c1=O)OC | inactive |
| COc1ccc(CCNC(=O)C(=O)NCC(c2ccc3c(c2)OCO3)N2CCOCC2)cc1 (centres undefined) | inactive |
| CC1CCC(C(C)C)C(OC(=O)CSc2nc(N)cc(=O)[nH]2)C1 (centres undefined) | inactive |
| O=C(Nc1cccc2ccccc12)c1nn(C23CC4CC(CC(C4)C2)C3)cc1[N+](=O)[O-] | inconclusive [inhibitor, single point] |
| CCc1nonc1NC(=O)c1oc2ccc(F)cc2c1C | inconclusive [inhibitor, partial curve, poor fit] |
| COc1cc2c(cc1OC)C(c1ccccc1)=NCC2 | inactive |
| CN(C)c1ccc(CNC(=O)C2CCCN(S(=O)(=O)c3ccc4c(c3)oc(=O)n4C)C2)cc1 (centres undefined) | inactive |
| O=C(NC1CCN(Cc2ccccc2)CC1)c1cccc(S(=O)(=O)Nc2ccc(F)cc2)c1 | inactive |
| O=C(Nc1cccc(Cl)c1)Nc1ccc(Br)cc1F | inconclusive [inhibitor, full curve, poor fit] |
| CC1C=CCC2C(=O)N(c3cccc(C(=O)Nc4ccc(Br)cc4)c3)C(=O)C12 (centres undefined) | inconclusive [inhibitor, full curve, poor fit] |
| CCCCCCSc1cccc(-c2nc3ccc(Cl)cn3c2NCc2ccccc2)c1 | inconclusive [inhibitor, full curve] |
